Measurements from patent US20220047729A1 (published 2022).

T1: recombinant hPD-L2 hIgG1 Fc-fusion protein (R&D Systems) (human, UniProt Q9BQ51 20-219)
T1 chain: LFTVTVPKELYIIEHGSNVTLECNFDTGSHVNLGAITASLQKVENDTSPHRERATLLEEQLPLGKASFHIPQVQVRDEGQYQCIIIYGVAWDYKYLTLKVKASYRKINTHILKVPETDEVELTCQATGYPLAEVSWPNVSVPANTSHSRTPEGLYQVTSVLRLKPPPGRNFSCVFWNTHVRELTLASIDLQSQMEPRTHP

B1: human PD-1 mutant T76D (hPD-1 Type I mCherry, on HEK 293 cells) (receptor)
chain: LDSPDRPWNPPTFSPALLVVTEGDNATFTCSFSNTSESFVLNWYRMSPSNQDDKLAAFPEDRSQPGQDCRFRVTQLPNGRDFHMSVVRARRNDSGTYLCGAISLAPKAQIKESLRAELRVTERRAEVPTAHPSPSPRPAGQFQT
B2: wild-type human PD-1 ectodomain (Leu 25-Thr 168) displayed on HEK 293 cells (hPD-1 Type I mCherry) (receptor)
chain: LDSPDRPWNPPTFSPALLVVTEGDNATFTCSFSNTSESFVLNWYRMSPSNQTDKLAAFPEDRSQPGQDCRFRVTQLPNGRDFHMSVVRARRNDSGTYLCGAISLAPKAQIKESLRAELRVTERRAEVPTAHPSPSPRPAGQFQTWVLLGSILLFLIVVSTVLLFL
B3: human PD-1 mutant T76E (hPD-1 Type I mCherry, on HEK 293 cells) (receptor)
chain: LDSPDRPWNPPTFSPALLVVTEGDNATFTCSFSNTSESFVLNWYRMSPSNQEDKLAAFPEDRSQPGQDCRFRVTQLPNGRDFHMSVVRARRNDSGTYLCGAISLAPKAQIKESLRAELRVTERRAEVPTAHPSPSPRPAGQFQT
B4: human PD-1 mutant Y68N (hPD-1 Type I mCherry, on HEK 293 cells) (receptor)
chain: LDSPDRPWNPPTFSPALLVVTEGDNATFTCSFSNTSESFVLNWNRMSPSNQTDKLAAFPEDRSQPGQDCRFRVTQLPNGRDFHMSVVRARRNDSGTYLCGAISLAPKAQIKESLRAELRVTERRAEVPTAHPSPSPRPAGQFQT

Each binder was assayed against recombinant hPD-L1 hIgG1 Fc-fusion protein (R&D Systems) (human, UniProt Q9NZQ7 fragment) (assay: FACS binding titration on HEK 293 cells).
Sequence of UniProt Q9NZQ7 (Q9NZQ7 19-239): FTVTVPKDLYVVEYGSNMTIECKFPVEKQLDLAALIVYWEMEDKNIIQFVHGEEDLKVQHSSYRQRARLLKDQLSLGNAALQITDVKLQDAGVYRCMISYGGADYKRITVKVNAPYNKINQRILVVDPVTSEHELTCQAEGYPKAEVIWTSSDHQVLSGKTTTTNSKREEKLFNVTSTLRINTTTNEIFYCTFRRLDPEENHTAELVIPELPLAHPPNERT
With B1 the EC50 was roughly 0.21 nM.
For B2, the EC50 was roughly 0.03 nM.
Work on B3 yielded an EC50 of roughly 0.31 nM.
B4 gave an EC50 of roughly 0.13 nM.

Target: T1, recombinant hPD-L2 hIgG1 Fc-fusion …
Assay: FACS binding titration on HEK 293 cells
Binder B1 has an EC50 of roughly 1.05 nM.
For B2, the EC50 was roughly 0.02 nM.
B3 gave an EC50 of roughly 0.78 nM.
B4 gave an EC50 of roughly 0.96 nM.
